# Test results from the supplement of paper PMC10126150.
# Sequences with one replicate were seen in a single cluster, so their values are uncertain.
# Tested on: ATP
# Test: switch fluorescence ratio, 500 uM ATP over buffer (Cy3 cluster intensity, sum of 5 cycles each) (fold (ratio)); higher = stronger signal-on switching upon ATP binding; sequences stand for … in TCGTCGGCAGCGTCAGATGTGTATAAGAGACAGTTTTTTTTTTTTTTTTTTTTTTTTT…TC
# Details: aptamer strand: ATP DNA aptamer (quencher-CACCTGGGGGAGTATTGCGGAGGAAGG + anchor), 100 nM annealed; ATP concentration: 500 uM; one replicate
# How it was run: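 The fluorescence ratio divides summed target-cycle Cy3 intensity by summed buffer-cycle Cy3 intensity for each cluster and is averaged per switch-domain sequence. Cy3-labelled switching-strand clusters on a modified Illumina MiSeq flow-cell were annealed to 100 nM quencher-labelled ATP aptamer, then imaged in selection buffer and again after 15 min with 500 uM ATP at 22 °C. Five such cycles were run, with NaOH stripping and re-annealing between them, and clusters outside 100-1000 RFU were excluded.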
# 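Note: ATP exposure 15 min at 22 °C before imaging.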
row,Sequence,switch fluorescence ratio
1,TACAATATAT,0.997
2,TACAATATTC,1.04
3,TACAATTACA,1.06
4,TACAATTCAG,0.976
5,TACACATTCA,1.08
6,TACACGTGGA,1.07
7,TACACTAAGC,1.1
8,TACACTTCAA,1
9,TACACTTCTA,1
10,TACAGACGGA,0.883
11,TACAGAGCC,0.989
12,TACAGATTAC,1.22
13,TACAGCGACG,0.978
14,TACAGGCCGC,1.05
15,TACAGGGACG,1.23
16,TACAGGTATT,1.05
17,TACATGATAG,1.02
18,TACATTCTT,1.01
19,TACATTGTTG,0.993
20,TACATTTGA,0.967
21,TACCAAAGGA,1.02
22,TACCAAATGG,0.98
23,TACCACACAA,1.2
24,TACCCACGCA,1.45
25,TACCCAGAA,1
26,TACCCCCATT,1.59

row,Sequence,switch fluorescence ratio
1,TACCCCGTGC,1.35
2,TACCCGTGGA,1.01
3,TACCCTCAGC,1.17
4,TACCGCCGCA,1.28
5,TACCGTCACG,1.21
6,TACCTAAGTA,1.03
7,TACCTACGGC,1.43
8,TACCTATGT,0.967
9,TACCTATTTA,1
10,TACCTCGGTG,1.04
11,TACCTGTCTG,1.05
12,TACCTGTGA,0.96
13,TACCTGTTTG,1.02
14,TACCTTAATG,1.02
15,TACCTTTCGT,1.15
16,TACGAAACGA,1.17
17,TACGACTCGC,1.12
18,TACGAGAATG,1.02
19,TACGAGCTAT,1.52
20,TACGAGTAAT,1.01
21,TACGAGTACT,1.08
22,TACGATAACG,1.08
23,TACGCACTTA,1.4
24,TACGCAGGTT,1
25,TACGCCCCAG,1.08
26,TACGCCGGGC,1.05

row,Sequence,switch fluorescence ratio
1,TACGCGCATA,1.76
2,TACGCGCGAT,1.04
3,TACGGAGCG,1.47
4,TACGGAGGG,1.04
5,TACGGCGACT,1.06
6,TACGGCTGGA,0.989
7,TACGGGACT,1.37
8,TACGGGCATG,1.02
9,TACGGGGTAT,0.972
10,TACGTAAG,1.11
11,TACGTCGCAG,1.03
12,TACGTGCACA,1.09
13,TACGTGGAGA,1.02
14,TACGTGGCAG,0.996
15,TACGTTAATC,1.28
16,TACGTTCTAA,0.945
17,TACGTTGCG,0.966
18,TACGTTTTCG,0.979
19,TACTAACCGA,1.19
20,TACTAACGTT,1.39
21,TACTAATAAT,1.04
22,TACTAGCCTG,0.964
23,TACTAGCTGA,1.01
24,TACTATTCTT,1.07
25,TACTCAAGC,1.03
26,TACTCCTGTT,1.03

row,Sequence,switch fluorescence ratio
1,TACTCTACGA,1.37
2,TACTCTGTAT,1.11
3,TACTGAAGTG,0.97
4,TACTGCAGTT,0.974
5,TACTGCCGCC,1.32
6,TACTGGGTAA,1.02
7,TACTGGGTGT,1.08
8,TACTGTCAGT,1.01
9,TACTGTCTAT,1.03
10,TACTGTCTCC,1.1
11,TACTTACCA,1.24
12,TACTTAGGG,1.04
13,TACTTATAAA,1.03
14,TACTTATCCG,0.977
15,TACTTCCGCA,1.31
16,TACTTGATTT,0.982
17,TACTTGCCCG,1.07
18,TACTTGCCCT,1.06
19,TACTTGGGG,0.98
20,TACTTTCCGG,1.14
21,TACTTTGAA,0.943
22,TAGAAAGGAT,0.943
23,TAGAAGATGC,0.988
24,TAGAAGATTC,0.994
25,TAGAAGTATG,1
26,TAGAAGTTCC,1.1

row,Sequence,switch fluorescence ratio
1,TAGAATATAC,1.11
2,TAGAATGAAA,1.01
3,TAGAATTTGA,0.98
4,TAGACACTTG,1.03
5,TAGACCACGA,1
6,TAGACCCGTT,0.973
7,TAGACCGTCC,1.87
8,TAGACGAAAG,0.981
9,TAGACGGCTC,1.02
10,TAGACTCTTC,1.02
11,TAGACTGTTT,0.982
12,TAGACTTTCG,0.981
13,TAGAGATTCT,1
14,TAGAGGGCCT,1.01
15,TAGAGT,0.996
16,TAGAGTAGTC,0.983
17,TAGAGTCCTG,0.974
18,TAGAGTCGTA,1.07
19,TAGAGTCTAG,0.993
20,TAGAGTGCTA,0.973
21,TAGAGTGGTG,0.971
22,TAGATATTCG,1
23,TAGATCTAAT,0.964
24,TAGATGACTT,0.943
25,TAGATGCCTT,1.03
26,TAGATGGCTG,1.08

row,Sequence,switch fluorescence ratio
1,TAGATGTTAC,0.979
2,TAGATTCTCT,0.999
3,TAGCACCGAA,1
4,TAGCACGCTC,1.1
5,TAGCAGGTG,3.1
6,TAGCATCGAC,1.26
7,TAGCATGAAG,0.978
8,TAGCCAAAGC,1.01
9,TAGCCACGTT,0.939
10,TAGCCAGTAC,2.36
11,TAGCCATATA,1.06
12,TAGCCCACTA,1
13,TAGCCGGCAT,0.98
14,TAGCCTATGG,0.974
15,TAGCGAGCA,0.992
16,TAGCGCCAA,1.08
17,TAGCGGGACA,1
18,TAGCGTGGCT,0.983
19,TAGCTCTGTT,0.978
20,TAGCTCTTGC,1.01
21,TAGCTGATGC,1.08
22,TAGCTGGATT,1.01
23,TAGCTGTCGG,1
24,TAGCTGTTGA,1.06
